Experimental data as given in article PMC13543948, “SNX-BAR proteins 5 and 6 are required for NCOA7-AS antiviral activity against influenza A virus” (The Journal of Biological Chemistry, 2026).
Positions count from the first letter of the chain named. No constants are given. Whether binding was seen depends on the method and setting. For part of these data: In cells and extracts the contact can be indirect. Some binding calls cover weakened binding; strength is not graded here. Where a sequence is shown, tags or fusion partners need not be part of it.

Chains of the proteins cited; added tags and fusions are not shown. Lines headed by an entry give the natural chain unless they say otherwise; changes in a name come on top.
UniProt Q13596: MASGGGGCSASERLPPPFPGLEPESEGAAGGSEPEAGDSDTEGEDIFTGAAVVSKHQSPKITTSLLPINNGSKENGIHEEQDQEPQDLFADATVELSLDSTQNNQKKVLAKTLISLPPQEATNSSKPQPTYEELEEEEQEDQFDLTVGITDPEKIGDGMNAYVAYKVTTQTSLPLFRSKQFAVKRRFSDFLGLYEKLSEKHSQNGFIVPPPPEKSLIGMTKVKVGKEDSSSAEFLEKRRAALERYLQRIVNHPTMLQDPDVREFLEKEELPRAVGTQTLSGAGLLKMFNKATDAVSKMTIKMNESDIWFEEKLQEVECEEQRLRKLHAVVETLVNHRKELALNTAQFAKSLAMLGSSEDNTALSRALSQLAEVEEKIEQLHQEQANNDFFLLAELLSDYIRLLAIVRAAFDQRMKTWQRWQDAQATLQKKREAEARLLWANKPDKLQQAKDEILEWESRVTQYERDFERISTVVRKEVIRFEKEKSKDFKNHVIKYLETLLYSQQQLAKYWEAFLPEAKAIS

What was measured:
[1] = target: T1, FLAG-tagged NCOA7-AS-WT, expressed in U87-MG cells (human) (UniProt Q8NI08); experiment: co-IP; U87-MG cells transduced with FLAG-tagged NCOA7-AS or E2-Crimson; FLAG immunoprecipitation; immunoblot of endogenous SNX proteins
T1 sequence: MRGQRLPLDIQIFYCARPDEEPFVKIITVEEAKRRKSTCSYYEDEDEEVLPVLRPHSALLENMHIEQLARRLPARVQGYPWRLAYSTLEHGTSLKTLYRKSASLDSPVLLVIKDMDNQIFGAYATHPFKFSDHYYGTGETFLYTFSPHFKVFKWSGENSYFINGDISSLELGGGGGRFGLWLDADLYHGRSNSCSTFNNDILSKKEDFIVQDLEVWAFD

[2] = target: T2, GST-tagged NCOA7-AS (NCOA7-AS-WT-GST) (human) (UniProt Q8NI08); experiment: pull-down; GST-tagged proteins (14-35 μg) on glutathione agarose beads, 85 μg MBP-tagged protein, 2 h at 4 °C; 50 mM Tris-HCl pH 8, 600 mM NaCl, 5 mM β-mercaptoethanol, 10% glycerol; Western blot (GST, MBP); both purified
T2 sequence: T1 sequence

[3] = target: T3, GST-tagged NCOA7-AS-Y14F (human) (UniProt Q8NI08); experiment: as above
T3 sequence: T1 sequence with Y14F

[4] = target: T4, GST-tagged NCOA7-AS N-terminal domain (NCOA7-AS-NTD-GST) (human) (UniProt Q8NI08); experiment: as above
T4 sequence: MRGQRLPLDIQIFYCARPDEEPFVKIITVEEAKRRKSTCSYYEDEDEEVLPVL

[5] = target: T5, GST-tagged NCOA7-AS TLDc domain (NCOA7-AS-TLDc-GST) (human) (UniProt Q8NI08); experiment: as above
T5 sequence: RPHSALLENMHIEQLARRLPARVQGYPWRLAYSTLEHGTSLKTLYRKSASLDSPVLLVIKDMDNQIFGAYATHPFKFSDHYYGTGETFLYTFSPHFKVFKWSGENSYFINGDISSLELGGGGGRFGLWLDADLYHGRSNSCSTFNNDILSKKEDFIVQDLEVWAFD

sorting nexin 1 (SNX1), endogenous in U87-MG cells (from UniProt Q13596 1-522)
binding [1]: binds

MBP-tagged PX domain of SNX1 (MBP-PX-SNX1) (from UniProt Q13596 143-272) (domain or fragment)
binding [2]: no binding

B1: MBP-tagged PX domain of SNX6 (MBP-PX-SNX6) (domain or fragment, UniProt Q9UNH7 26-173)
chain: LQSDAALQVDISDALSERDKVKFTVHTKSSLPNFKQNEFSVVRQHEEFIWLHDSFVENEDYAGYIIPPAPPRPDFDASREKLQKLGEGEGSMTKEEFTKMKQELEAEYLAIFKKTVAMHEVFLCRVAAHPILRRDLNFHVFLEYNQDL
binding [3]: binds | binding [2]: binds | binding [4]: binds | binding [5]: no binding
